Data from PubChem BioAssay AID624296 (National Center for Advancing Translational Sciences (NCATS), 2012).
Screen size: about 350,000 compounds; about 9,900 (2.8%) were called active. The inconclusive results got no clear call from the source; some entries with a clear call stand among them for comparison. Calls follow the shape of the dose curve; as a rule, active = well fitted activation curve with a large enough effect; inconclusive = small, poorly fitted or top-dose-only effect; inactive = no such curve, though single readings can be large or run the other way. Potencies of inconclusive entries are left out as doubtful fits.

Experiment: A quantitative high throughput screen for small molecules that induce DNA re-replication in MCF 10a normal breast cells. Also: nearly all actives have a fitted effect of over 50% in size.
Conditions: MCF 10A DNA re-replication, Hoechst nuclear intensity, 48 h; series mostly up to 46.1 µM
Potency is read from the fitted curve at half-maximal effect; tags tell the direction and shape of the fitted curve.

Which Potency does the source give for `CC(=O)Oc1ccc(C(=O)Nc2ccc(S(=O)(=O)NCC3CCCO3)cc2)cc1` (stereo not drawn) here?
The Potency was inconclusive [activator, full curve, poor fit].

With `COc1cc(C)c(/C=C(\C#N)C(=O)Nc2cccc(C)c2)cc1C(C)C` as the compound, how does the Potency read?
The Potency was active: 20.6 µM.

Which Potency does the source give for `C[C@H](NC(=O)c1nc[nH]c1C(=O)N[C@@H](C)c1ccccc1)C(=O)OC(C)(C)C` here?
Its Potency is “inactive”.

With `CCN(CC)c1ncnc2sc(C(=O)N3CCN(c4ccc(OC)cc4)CC3)c(C)c12` as the compound, how does the Potency read?
The Potency was inconclusive [activator, single point].

Which Potency does the source give for `CCOC(=O)c1sc2ccccc2c1OC(=O)c1ccccc1OC` here?
Its Potency is inconclusive [activator, partial curve, poor fit].

For `CCOC(=O)C1CCN(C(=O)Nc2cccc(OC)c2)CC1`, which Potency is on record?
The Potency was inconclusive [activator, partial curve, poor fit].

Which Potency does the source give for `CC1CCCC(NC(=O)CCC(=O)NCc2ccccc2)C1C` (stereo not drawn) here?
Its Potency is “inactive”.

For `O=C(Nc1ccccc1)c1cccc(NC(=O)c2ccco2)c1`, which Potency is on record?
Its Potency is “inactive”.

Which Potency does the source give for `Cc1cc(NC(=O)CCc2ccc(S(=O)(=O)N3CCOCC3)cc2)n(-c2ccccc2)n1` here?
Its Potency is “inactive”.

Which Potency does the source give for `CCOC(=O)c1cc(-c2ccc(OC)cc2F)nc2c1c(C)nn2CCC#N` here?
The Potency was “inactive”.

Which Potency does the source give for `CCC1COCCS(=O)(=O)N1Cc1ccccc1F` (stereo not drawn) here?
Its Potency is inconclusive [activator, single point].

For `N=C(N)SCc1ccc(Cl)cc1Cl`, which Potency is on record?
The Potency was inconclusive [activator, single point].

For `O=C(Nc1cc(S(=O)(=O)Nc2ccc(Cl)cc2)ccc1N1CCCCC1)c1ccc(F)cc1`, which Potency is on record?
Its Potency is inconclusive [activator, single point].

For `COc1ccc(/C=C(\C#N)C(=O)NCc2ccccc2)cc1O`, which Potency is on record?
Its Potency is inconclusive [activator, partial curve].

With `CCOC(=O)c1sc(NC(=O)c2ccco2)nc1-c1ccccc1` as the compound, how does the Potency read?
The Potency was inconclusive [activator, single point].

With `CC(NC(=S)Nc1ccccc1Cl)C(c1cccs1)N1CCCC1` (stereo not drawn) as the compound, how does the Potency read?
The Potency was inconclusive [activator, single point].

For `CCc1ccc(NC(=O)C2(c3ccccc3)CC2(Cl)Cl)cc1` (stereo not drawn), which Potency is on record?
The Potency was active: 23.1 µM.

Which Potency does the source give for `Cc1cc(OCC(O)CN2C(C)CCCC2C)ccc1C(C)C` (stereo not drawn) here?
Its Potency is inconclusive [activator, partial curve, poor fit].

For `Cc1nc2c(-c3ccccc3)c(C)nn2c(N)c1-c1ccccc1`, which Potency is on record?
Its Potency is inconclusive [activator, single point].

For `O=C(N/N=C/c1ccc([N+](=O)[O-])cc1)c1ccc(COc2ccccc2-c2ccccc2)cc1`, which Potency is on record?
The Potency was “inactive”.

For `CC1(C)CC(NC(=O)c2cc(S(=O)(=O)N3CCCCC3)ccc2Cl)CC(C)(C)N1`, which Potency is on record?
The Potency was inconclusive [activator, single point].

Which Potency does the source give for `CC(C)CCN(N=O)[C@@H](Cc1ccccc1)CN(N=O)[C@@H](Cc1ccccc1)CN(C)N=O` here?
The Potency was “inactive”.

With `O=C(CNC(c1ccccc1)c1ccccc1)Nc1ccccc1Br` as the compound, how does the Potency read?
Its Potency is inconclusive [activator, partial curve, poor fit].

With `Cc1nc(N2CCN(c3ccccc3O)CC2)c2c(-c3ccccc3)csc2n1` as the compound, how does the Potency read?
Its Potency is active: 13 µM.

With `O=C(Cc1ccc(-n2c(=O)c3ccccc3n(Cc3ccccc3F)c2=O)cc1)NCC1CCCO1` (stereo not drawn) as the compound, how does the Potency read?
The Potency was inconclusive [activator, partial curve, poor fit].

Which Potency does the source give for `Cc1cc(C(F)(F)F)nc(SCC(=O)c2cccc([N+](=O)[O-])c2)n1` here?
Its Potency is inconclusive [activator, full curve, poor fit].

With `CC1=C(C#N)C(c2ccoc2)C(C(=O)OCc2ccccc2)=C(N)S1` (stereo not drawn) as the compound, how does the Potency read?
The Potency was inconclusive [activator, single point].

With `Clc1ccc(/C=N/Nc2nc(Cl)nc3ccccc23)cc1` as the compound, how does the Potency read?
Its Potency is inconclusive [activator, single point].

With `COc1ccc(NS(=O)(=O)c2ccc(NC(=O)c3ccc(N(C)S(C)(=O)=O)cc3)cc2)c(OC)c1` as the compound, how does the Potency read?
Its Potency is “inactive”.

With `CCCc1cc(=O)[nH]c(SCc2csc(-c3ccccc3)n2)n1` as the compound, how does the Potency read?
Its Potency is inconclusive [activator, partial curve, poor fit].

With `O=C(CSc1ccccn1)N/N=C/c1ccccc1[N+](=O)[O-]` as the compound, how does the Potency read?
Its Potency is “inactive”.

With `CC1CN(CC(=O)NCc2ccc(Cl)cc2)CC(C)O1` (stereo not drawn) as the compound, how does the Potency read?
Its Potency is “inactive”.

For `Cc1c(OCC(=O)N[C@@H](Cc2ccccc2)C(=O)O)ccc2c3c(c(=O)oc12)CCC3`, which Potency is on record?
Its Potency is inconclusive [activator, single point].

Which Potency does the source give for `COc1cc(N=Nc2ccc3ccccc3c2)ccc1O` here?
The Potency was inconclusive [activator, full curve, poor fit].

With `COc1ccccc1/C=N/NC(=O)c1cccc2ccccc12` as the compound, how does the Potency read?
The Potency was “inactive”.

Which Potency does the source give for `CCOC(=O)c1c(N)n(-c2ccc(N)cc2)c2nc3ccccc3nc12` here?
The Potency was “inactive”.

With `NC(=S)N/N=C\c1ccc(-c2cccc(Cl)c2Cl)o1` as the compound, how does the Potency read?
The Potency was inconclusive [activator, single point].

For `O=[N+]([O-])c1nn(-c2ccc3c(c2)OCCO3)n(O)c1=NCc1ccc(F)cc1Cl`, which Potency is on record?
Its Potency is “inactive”.

For `COc1cc2ccccc2cc1C(=O)N1CC(C)CC(C)C1` (stereo not drawn), which Potency is on record?
The Potency was inconclusive [activator, partial curve, poor fit].

With `O=C(CNC(=O)c1ccc2c(=O)n3c(nc2c1)CCC3)Nc1ccc(F)c(F)c1` as the compound, how does the Potency read?
Its Potency is “inactive”.

Which Potency does the source give for `CC(C)C[C@H](NC(=O)c1nc[nH]c1C(=O)N[C@@H](CC(C)C)C(=O)OCc1ccccc1)C(=O)OCc1ccccc1` here?
Its Potency is inconclusive [activator, full curve, poor fit].

For `Cc1cc(=O)n2c3ccccc3n(CC(O)CN3CCCC3)c2c1C#N` (stereo not drawn), which Potency is on record?
Its Potency is inconclusive [activator, single point].

For `C/C=C/C=C\C(=O)Nc1cccc(C2=NOC3(C2)C[C@H](C(N)=O)N(C(=O)/C=C/C)C3)c1` (stereo partly drawn), which Potency is on record?
Its Potency is inconclusive [activator, full curve, poor fit].

Which Potency does the source give for `O=C(/C=C/c1cccs1)Nc1nc(-c2ccccc2)cs1` here?
The Potency was “inactive”.

With `Cc1cccc(NC(=S)N2CCC(C(=O)c3ccc(F)cc3)CC2)c1C` as the compound, how does the Potency read?
Its Potency is inconclusive [activator, single point].

Which Potency does the source give for `COc1ccc(CNc2nc(NCc3ccc(OC)cc3)c3ncn(C4CCCC4)c3n2)cc1` here?
Its Potency is inconclusive [activator, full curve, poor fit].

With `O=[N+]([O-])c1ccc(Sc2cccc[n+]2[O-])c2nonc12` as the compound, how does the Potency read?
Its Potency is inconclusive [activator, partial curve].

With `O=[N+]([O-])c1ccc(CSc2nc3ccccc3[nH]2)cc1` as the compound, how does the Potency read?
The Potency was “inactive”.

Which Potency does the source give for `CCOc1cc(-c2cc(-c3ccc(C)o3)nc(N)c2C#N)ccc1O` here?
The Potency was inconclusive [activator, partial curve, poor fit].

Which Potency does the source give for `CCOC(=O)c1c(C)nc2ccccn12` here?
The Potency was inconclusive [activator, partial curve, poor fit].

Which Potency does the source give for `O=S(Cc1ccc(Br)cc1)Cc1nnc(SCc2ccc(Cl)cc2)n1-c1ccccc1` (stereo not drawn) here?
The Potency was inconclusive [activator, single point].

For `Cc1c(Cl)cccc1NC(=S)N(CCCN1CCOCC1)Cc1ccco1`, which Potency is on record?
Its Potency is “inactive”.

Which Potency does the source give for `COc1ccc(NC(=O)COc2ccccc2C(=O)NCC(c2ccccc2)N(C)C)cc1Cl` (stereo not drawn) here?
Its Potency is inconclusive [activator, partial curve, poor fit].

Which Potency does the source give for `Cc1ccc(S(=O)(=O)N2CCN(C(=O)c3ccccc3Cc3ccccc3)CC2)c(C)c1` here?
Its Potency is inconclusive [activator, partial curve, poor fit].

For `CCCN1C(=O)c2ccccc2NC1c1ccc(OC)cc1O` (stereo not drawn), which Potency is on record?
Its Potency is inconclusive [activator, partial curve, poor fit].

For `CC(=O)c1c(C)[nH]c(C(=O)OCC(=O)c2c[nH]c3ccccc23)c1C`, which Potency is on record?
Its Potency is inconclusive [activator, partial curve, poor fit].

With `O=C1CC(Nc2ccc(N3CCOCC3)cc2)C(=O)N1c1ccccc1` (stereo not drawn) as the compound, how does the Potency read?
Its Potency is active: 8.2 µM.

With `O=C(Nc1ccccc1Cl)C1CCCN(c2ncnc3c2nc2n3CCCCC2)C1` (stereo not drawn) as the compound, how does the Potency read?
Its Potency is inconclusive [activator, single point].

For `CC(C)C[C@H](NC(=O)c1nc[nH]c1C(=O)NC(c1ccccc1)c1ccccc1)C(=O)OC(C)(C)C`, which Potency is on record?
The Potency was inconclusive [activator, partial curve, poor fit].

With `O=C(CNC(=O)c1ccccc1)N/N=C/c1cn[nH]c1-c1ccccc1` as the compound, how does the Potency read?
Its Potency is “inactive”.

Which Potency does the source give for `CN(C)S(=O)(=O)c1cccc(NC(=O)c2cccc(S(=O)(=O)N3CCCCCC3)c2)c1` here?
Its Potency is inconclusive [activator, single point].

For `CCOC(=O)c1[nH]c2ccccc2c1NC(=O)c1ccc(S(=O)(=O)N(C)C)cc1`, which Potency is on record?
Its Potency is “inactive”.

For `CCCc1cc(=O)oc2cc(C)cc(OCC(=O)NCCCN3CCOCC3)c12`, which Potency is on record?
Its Potency is inconclusive [activator, partial curve, poor fit].

For `O=C(COc1coc(CN2CCN(c3ccc(F)cc3)CC2)cc1=O)NC1CCCCC1`, which Potency is on record?
The Potency was “inactive”.

For `COc1ccccc1C(=O)n1nc(-c2ccc(Cl)cc2)nc1N`, which Potency is on record?
The Potency was inconclusive [activator, partial curve, poor fit].

Which Potency does the source give for `COc1cc(OC)cc(C(=O)NCC(=O)OCC(=O)NC(C)CCc2ccccc2)c1` (stereo not drawn) here?
Its Potency is “inactive”.

For `CC/C(C)=N/NC(=O)c1[nH]c2ccc(C)cc2c1-c1ccccc1`, which Potency is on record?
The Potency was active: 11.6 µM.

For `CS(=O)(=O)N1CCCC(C(=O)NCCc2ccccc2)C1` (stereo not drawn), which Potency is on record?
The Potency was inconclusive [activator, single point].
